Laboratory results from PubChem BioAssay (NCATS).
Values joined by “and” are separate entries in the source; they are usually repeats but may differ in a detail not shown here. Equal entries are not always repeated. The shares of active, inactive and inconclusive entries below differ from those in the screen. Potencies beside an inconclusive call are fits to weak or partial responses and may not hold up. Active and inactive are the calls of the source. Calls come from the whole dose curve; as a rule, active = well fitted curve in the direction sought with a large enough effect; inconclusive = small, poorly fitted or top-dose-only effect, or another doubt; inactive = no such curve, though single readings can be large; an effect the other way counts as inactive or inconclusive.

How the values were obtained:
[1] = qHTS of pediatric cancer cell lines to identify multiple opportunities for drug repurposing: Primary screen for DAOY cells (AID 1347090); settings: DAOY medulloblastoma viability, CellTiter-Glo luminescence, 48 h; activity change, negative = cytotoxic: at 46 µM (top of the series); note: nearly all actives have a fitted effect of over 55% in size
Method in brief: (§1)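 Viability measured as metabolically active cells via CellTiter-Glo luminescence following 48 hours of compound exposure, 11-point dilutions in confirmatory testing. 500-1,000 cells/well plated 5 hours before dosing; controls were DMSO and 2.3 µM bortezomib.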

[2] = qHTS of pediatric cancer cell lines to identify multiple opportunities for drug repurposing: Primary screen for SJ-GBM2 cells (AID 1347091)
Method in brief: as §1

[3] = qHTS of pediatric cancer cell lines to identify multiple opportunities for drug repurposing: Primary screen for A673 cells (AID 1347092); settings: A673 Ewing sarcoma viability, CellTiter-Glo ATP luminescence, 48 h; activity change, negative = cytotoxic: at 46 µM (top of the series); note: nearly all actives have a fitted effect of over 45% in size
Method in brief: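 Cells are plated, rested 5 h, dosed by pintool, incubated 48 h, then lysed with CellTiter-Glo and read by luminescence. DMSO is the neutral control; bortezomib at 2.3 uM final is the positive control.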

[4] = qHTS of pediatric cancer cell lines to identify multiple opportunities for drug repurposing: Primary screen for BT-37 cells (AID 1347094)
Method in brief: (§2)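 500-1,000 cells/well; 5 h pre-incubation 37 °C/5% CO2; compound pinned; 48 h; CellTiter-Glo, 15 min RT; luminescence. MIPE 11-pt from 0.78 nM, NPC 8-pt from 0.59 nM final. Bortezomib 2.3 µM final as positive control.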

[5] = qHTS of pediatric cancer cell lines to identify multiple opportunities for drug repurposing: Primary screen for NB-EBc1 cells (AID 1347095)
Method in brief: as §2

[6] = qHTS of pediatric cancer cell lines to identify multiple opportunities for drug repurposing: Primary screen for U-2 OS cells (AID 1347096); note: nearly all actives have a fitted effect of over 50% in size
Method in brief: (§3)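 Viability after 48 h compound treatment at 37C, 500-1,000 cells/well, read as ATP luminescence with CellTiter-Glo. Primary screens used 11-point (MIPE, 0.78 nM-46 µM) or 8-point (NPC, 0.59 nM-46 µM) final concentrations; follow-up screens used 11-point dilutions.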

[7] = qHTS of pediatric cancer cell lines to identify multiple opportunities for drug repurposing: Primary screen for Saos-2 cells (AID 1347097); note: nearly all actives have a fitted effect of over 40% in size
Method in brief: as §2

[8] = qHTS of pediatric cancer cell lines to identify multiple opportunities for drug repurposing: Primary screen for SK-N-SH cells (AID 1347098); note: nearly all actives have a fitted effect of over 65% in size;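 for activity change, negative = cytotoxic: DMSO served as neutral control and bortezomib at 2.3 µM as positive control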
Method in brief: (§4)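 Cells (500-1,000/well) rested 5 h, then received compounds for 48 h; metabolically active cells were measured by CellTiter-Glo luminescence. Final concentrations spanned up to 46 µM (MIPE, 11-point) or 0.59 nM-46 µM (NPC, 8-point) in primary screens, 11-point in follow-ups.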

[9] = qHTS of pediatric cancer cell lines to identify multiple opportunities for drug repurposing: Primary screen for BT-12 cells (AID 1347101); note: nearly all actives have a fitted effect of over 25% in size
Method in brief: as §4

[10] = qHTS of pediatric cancer cell lines to identify multiple opportunities for drug repurposing: Primary screen for Rh18 cells (AID 1347102); note: nearly all actives have a fitted effect of over 65% in size
Method in brief: as §3

[11] = qHTS of pediatric cancer cell lines to identify multiple opportunities for drug repurposing: Primary screen for RD cells (AID 1347104); note: nearly all actives have a fitted effect of over 55% in size
Method in brief: as §2

[12] = qHTS of pediatric cancer cell lines to identify multiple opportunities for drug repurposing: Primary screen for MG 63 (6-TG R) cells (AID 1347105); settings: MG 63 (6-TG R) viability, CellTiter-Glo, 48 h; activity change, negative = cytotoxic: at 46 µM (top of the series); note: nearly all actives have a fitted effect of over 50% in size
Method in brief: as §2

[13] = qHTS of pediatric cancer cell lines to identify multiple opportunities for drug repurposing: Primary screen for Rh30 cells (AID 1347107); note: nearly all actives have a fitted effect of over 75% in size
Method in brief: as §3

[14] = qHTS of pediatric cancer cell lines to identify multiple opportunities for drug repurposing: Primary screen for Rh41 cells (AID 1347108); note: nearly all actives have a fitted effect of over 70% in size
Method in brief: as §2

[15] = qHTS of pediatric cancer cell lines to identify multiple opportunities for drug repurposing: Primary screen for NB1643 cells (AID 1347099); note: nearly all actives have a fitted effect of over 50% in size
Method in brief: as §2

[16] = qHTS of pediatric cancer cell lines to identify multiple opportunities for drug repurposing: Primary screen for LAN-5 cells (AID 1347100); settings: LAN-5 neuroblastoma viability, CellTiter-Glo luminescence, 48 h; activity change, negative = cytotoxic: at 46 µM (top of the series)
Method in brief: as §3

[17] = qHTS of pediatric cancer cell lines to identify multiple opportunities for drug repurposing: Primary screen for OHS-50 cells (AID 1347103); note: nearly all actives have a fitted effect of over 40% in size
Method in brief: as §4

[18] = qHTS of pediatric cancer cell lines to identify multiple opportunities for drug repurposing: Confirmatory screen for NB1643 cells (AID 1347109); settings: NB1643 neuroblastoma cell viability; activity change, negative = cytotoxic: at 45.9 µM (top of the series); note: nearly all actives have a fitted effect of over 45% in size
Method in brief: as §3

[19] = qHTS of pediatric cancer cell lines to identify multiple opportunities for drug repurposing: Primary screen for SK-N-MC cells (AID 1347093); settings: SK-N-MC viability, CellTiter-Glo luminescence, 48 h; activity change, negative = cytotoxic: at 46 µM (top of the series)
Method in brief: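 Metabolically active cells were quantified by ATP-dependent luminescence (CellTiter-Glo, 15 min at room temperature) following 48 h treatment. Cells had been plated at 500-1,000 per well and settled for 5 h beforehand.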

[20] = qHTS of pediatric cancer cell lines to identify multiple opportunities for drug repurposing: Primary screen for control Hh wild type fibroblast cells (AID 1347106); note: nearly all actives have a fitted effect of over 55% in size
Method in brief: as §3
Potency is the fitted concentration of half-maximal effect; tags give direction and shape of the fitted curve.

SMILES	Potency [1]	Potency [2]	Potency [3]	Potency [4]	Potency [5]	Potency [6]	Potency [7]	Potency [8]	Potency [9]	Potency [10]	Potency [11]	Potency [12]	Potency [13]	Potency [14]	Potency [15]	Potency [16]	Potency [17]	Potency [18]	Potency [19]	Potency [20]
Cn1cnc(-c2cc3nccc(Oc4ccc(NC(=S)NC(=O)Cc5ccccc5)cc4F)c3s2)c1	inconclusive: 18.7 µM [cytotoxic, partial curve]	active: 0.0469 µM	active: 29.6 µM	inconclusive: 27.3 µM [cytotoxic, partial curve, poor fit]	inconclusive: 37.2 µM [cytotoxic, single point]	inconclusive: 29.6 µM [cytotoxic, single point]	active: 16.6 µM	active: 21.5 µM	inconclusive: 27.3 µM [cytotoxic, single point]	inconclusive: 16.6 µM [cytotoxic, partial curve]	inconclusive: 18.7 µM [cytotoxic, partial curve]	inconclusive: 11.8 µM [cytotoxic, partial curve]	inconclusive: 16.6 µM [cytotoxic, partial curve]	inconclusive: 13.2 µM [cytotoxic, partial curve]						
Cc1ccc(Nc2nccc(N(C)c3ccc4c(C)n(C)nc4c3)n2)cc1S(N)(=O)=O	inconclusive: 4.22 µM [cytotoxic, partial curve] and inconclusive: 14.8 µM [cytotoxic, partial curve]	inconclusive: 15 µM [cytotoxic, partial curve] and active: 14.8 µM	inconclusive: 11.8 µM [cytotoxic, partial curve]	inconclusive: 21.9 µM [cytotoxic, single point] and inconclusive: 27.3 µM [cytotoxic, single point]		inconclusive: 8.41 µM [cytotoxic, partial curve, poor fit] and inconclusive: 14.8 µM [cytotoxic, partial curve]		inconclusive: 17.2 µM [cytotoxic, partial curve] and inconclusive: 17.1 µM [cytotoxic, partial curve]	active: 12.3 µM and active: 15.3 µM	inconclusive: 11.9 µM [cytotoxic, partial curve]	inconclusive: 21.1 µM [cytotoxic, partial curve, poor fit] and inconclusive: 29.6 µM [cytotoxic, partial curve]	active: 66.8 nM and inconclusive: 4.69 µM [cytotoxic, partial curve]		inconclusive: 10.6 µM [cytotoxic, partial curve] and inconclusive: 14.8 µM [cytotoxic, partial curve]	inconclusive: 20.9 µM [cytotoxic, single point]	inconclusive: 26.6 µM [cytotoxic, single point] and active: 18.7 µM	inconclusive: 5.44 µM [cytotoxic, full curve]	inconclusive: 11.7 µM [cytotoxic, partial curve, poor fit]		
CCC(=C(c1ccc(O)cc1)c1ccc(OCCNC)cc1)c1ccccc1	inconclusive: 37.2 µM [cytotoxic, single point]	inconclusive: 29.6 µM [cytotoxic, single point]		inconclusive: 30.6 µM [cytotoxic, single point]	inconclusive: 37.2 µM [cytotoxic, single point]	inconclusive: 29.6 µM [cytotoxic, single point]		active: 34.1 µM		inconclusive: 26.4 µM [cytotoxic, single point]	active: 33.2 µM			inconclusive: 6.62 µM [cytotoxic, partial curve]	active: 23.5 µM				inconclusive: 37.2 µM [cytotoxic, partial curve, poor fit]	inconclusive: 26.4 µM [cytotoxic, partial curve, poor fit]
O=C(Nc1cccc(Cl)c1)Nc1ncc(CCNc2ncnc3ccsc23)s1	inconclusive: 18.7 µM [cytotoxic, partial curve]	inconclusive: 0.209 µM [cytotoxic, full curve]		inconclusive: 7.69 µM [cytotoxic, partial curve]	inconclusive: 0.296 µM [cytotoxic, full curve]			inconclusive: 2.15 µM [cytotoxic, full curve]	inconclusive: 17.2 µM [cytotoxic, partial curve]	inconclusive: 10.5 µM [cytotoxic, partial curve]	inconclusive: 18.7 µM [cytotoxic, partial curve]	inconclusive: 1.87 µM [cytotoxic, full curve, poor fit]	inconclusive: 6.62 µM [cytotoxic, partial curve]	inconclusive: 4.69 µM [cytotoxic, partial curve]	inconclusive: 0.105 µM [cytotoxic, full curve]				inconclusive: 0.264 µM [cytotoxic, full curve, poor fit]	
COC(=O)[C@H](CCCN=C(N)N)NS(=O)(=O)c1ccc(C)cc1	inactive	inactive	inactive				inconclusive: 10.5 µM [cytotoxic, partial curve]	inconclusive: 24.1 µM [cytotoxic, partial curve]											inactive	
CC[C@H](CC#N)OC(=O)N[C@@H](C)c1cccc(NC(=O)Nc2ccc(-c3cnco3)c(OC)c2)c1	inconclusive: 0.469 µM [cytotoxic, full curve]	inconclusive: 1.05 µM [cytotoxic, full curve]	active: 0.743 µM	active: 0.485 µM		inconclusive: 1.48 µM [cytotoxic, full curve, poor fit]	active: 18.7 µM				inconclusive: 0.935 µM [cytotoxic, full curve]	inconclusive: 0.469 µM [cytotoxic, full curve]	inconclusive: 8.33 µM [cytotoxic, partial curve]		active: 0.743 µM					inconclusive: 16.6 µM [cytotoxic, partial curve]
CC1=CC(=O)c2ccccc2C1=O	inconclusive: 23.5 µM [cytotoxic, single point]	inconclusive: 33.5 µM [cytotoxic, single point]	active: 13.3 µM and active: 14.8 µM		inconclusive: 26.6 µM [cytotoxic, single point]		inconclusive: 29.9 µM [cytotoxic, single point] and active: 18.7 µM	inconclusive: 27.1 µM [cytotoxic, single point]		inconclusive: 20.9 µM [cytotoxic, partial curve]	inconclusive: 26.6 µM [cytotoxic, single point]	inconclusive: 29.6 µM [cytotoxic, single point]	inconclusive: 18.7 µM [cytotoxic, partial curve]				inconclusive: 38.9 µM [cytotoxic, single point] and inconclusive: 38.5 µM [cytotoxic, single point]			
C[C@@H]1[C@H](C)CC[C@]2(C(=O)O)CC[C@]3(C)C(=CC[C@@H]4[C@@]5(C)CC[C@H](O)C(C)(C)[C@H]5CC[C@]43C)[C@@H]12	inconclusive: 42.9 µM [cytotoxic, partial curve, poor fit]	inconclusive: 2.41 µM [cytotoxic, full curve, poor fit]	inconclusive: 42.9 µM [cytotoxic, partial curve, poor fit]					active: 17.5 µM					inactive	inconclusive: 34 µM [cytotoxic, partial curve]	inconclusive: 0.108 µM [cytotoxic, full curve]		inconclusive: 7.03 µM [cytotoxic, partial curve, poor fit]			
CC(=O)N1CCN(c2ccc(OC[C@H]3CO[C@](Cn4ccnc4)(c4ccc(Cl)cc4Cl)O3)cc2)CC1	inconclusive: 23.5 µM [cytotoxic, single point]	inconclusive: 14.8 µM [cytotoxic, partial curve]	inconclusive: 23.5 µM [cytotoxic, partial curve]		inconclusive: 23.5 µM [cytotoxic, single point]		active: 33.2 µM	inactive		inconclusive: 18.7 µM [cytotoxic, partial curve]	inconclusive: 16.6 µM [cytotoxic, partial curve]	inconclusive: 0.372 µM [cytotoxic, full curve, poor fit]		inconclusive: 16.6 µM [cytotoxic, partial curve]			inconclusive: 5.44 µM [cytotoxic, full curve]			
COCC(=O)NCC=Cc1ccc2ncnc(Nc3ccc(Oc4ccc(C)nc4)c(C)c3)c2c1	inconclusive: 29.6 µM [cytotoxic, single point]	inconclusive: 29.6 µM [cytotoxic, single point]		inconclusive: 27.3 µM [cytotoxic, partial curve, poor fit]	inconclusive: 20.9 µM [cytotoxic, partial curve]		active: 16.6 µM	inconclusive: 24.1 µM [cytotoxic, partial curve]		inconclusive: 16.6 µM [cytotoxic, partial curve]	inconclusive: 29.6 µM [cytotoxic, partial curve]	inactive	inconclusive: 18.7 µM [cytotoxic, partial curve]	inconclusive: 14.8 µM [cytotoxic, partial curve]	active: 20.9 µM	active: 18.7 µM		inconclusive: 53.7 µM [cytotoxic, single point]	inconclusive: 33.2 µM [cytotoxic, single point]	
